Laboratory results as given in article PMC4336329 (PLoS ONE, 2015).
Hit rate of the full screen: of about 310,000 compounds, about 14,000 (4.5%) showed an effect of 50% or more. The effect is printed as a negative number. Some of the results follow.

These compounds were tested against human ether-à-go-go-related gene (hERG) potassium channel (human, UniProt Q12809) (assay: primary screen, population patch clamp on CHO cells stably expressing hERG).
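Note: peak tail current of the secondary pulse compared with the same well before compound.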

Chain of human ether-à-go-go-related gene (hERG) potassium channel (Q12809 whole entry, looked up): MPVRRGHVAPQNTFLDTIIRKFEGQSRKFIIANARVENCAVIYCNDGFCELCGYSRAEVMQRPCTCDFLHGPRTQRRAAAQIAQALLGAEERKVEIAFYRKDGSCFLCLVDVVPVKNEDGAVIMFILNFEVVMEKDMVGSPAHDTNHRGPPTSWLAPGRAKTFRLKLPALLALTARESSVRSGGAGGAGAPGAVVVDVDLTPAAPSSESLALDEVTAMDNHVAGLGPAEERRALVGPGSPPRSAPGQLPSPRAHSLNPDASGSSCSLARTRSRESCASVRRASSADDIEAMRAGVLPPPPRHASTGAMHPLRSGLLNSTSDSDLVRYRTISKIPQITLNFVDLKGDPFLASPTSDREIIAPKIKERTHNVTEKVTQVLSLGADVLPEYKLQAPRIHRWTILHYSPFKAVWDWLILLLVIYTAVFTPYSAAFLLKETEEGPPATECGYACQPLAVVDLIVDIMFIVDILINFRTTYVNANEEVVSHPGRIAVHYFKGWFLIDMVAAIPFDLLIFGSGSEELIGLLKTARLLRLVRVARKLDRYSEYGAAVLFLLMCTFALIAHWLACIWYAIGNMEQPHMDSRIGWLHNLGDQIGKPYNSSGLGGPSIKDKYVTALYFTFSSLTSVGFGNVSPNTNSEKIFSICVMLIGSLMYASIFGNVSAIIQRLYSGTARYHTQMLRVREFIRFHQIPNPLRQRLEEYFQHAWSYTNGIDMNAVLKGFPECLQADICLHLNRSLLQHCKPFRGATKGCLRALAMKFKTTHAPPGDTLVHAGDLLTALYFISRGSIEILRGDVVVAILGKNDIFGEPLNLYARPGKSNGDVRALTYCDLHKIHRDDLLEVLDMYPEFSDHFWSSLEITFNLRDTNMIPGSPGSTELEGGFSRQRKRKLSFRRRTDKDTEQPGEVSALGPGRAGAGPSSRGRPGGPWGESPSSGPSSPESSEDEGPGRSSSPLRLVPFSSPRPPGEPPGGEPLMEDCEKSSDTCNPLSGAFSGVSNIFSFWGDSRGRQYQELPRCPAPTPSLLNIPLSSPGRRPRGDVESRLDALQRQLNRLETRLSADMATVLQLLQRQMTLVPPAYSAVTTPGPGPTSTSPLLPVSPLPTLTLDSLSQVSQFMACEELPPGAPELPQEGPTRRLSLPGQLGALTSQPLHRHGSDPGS

Compound | hERG current change (%, negative = inhibition) at 10uM [%]
Cc1ccc(N(C(=O)CS(=O)CC(=O)Nc2ccc(F)cc2)C(C(=O)NC2CCCCC2)c2ccco2)cc1 (stereo not drawn) | 3.77
COC(=O)c1ccc(-c2nc(O)c(C)s2)cc1 | 16
CN(C)c1nc(OCCNC(=O)COc2ccc(Cl)cc2Cl)nc(N2CCOCC2)n1 | -6.89
COC(=O)C(NC=O)C(O)(Cc1ccccc1)C(F)(F)F (stereo not drawn) | 0.47
O=C(N1CCCC1)C12CC3CCC(CC(C3)C1)C2 | 15.6
CCOc1ccc(NC(=O)CCCn2c(=S)[nH]c3ccsc3c2=O)cc1 | 1.72
O=C(Cn1cncn1)N/N=C/c1cccc(Cl)c1 | 16.3
COC(=O)C1=C(c2ccc(F)cc2OCc2ccccc2)C[C@@H]2CC[C@H]1N2C(=O)NCCNC(C)=O | 0.67
Cc1cc(C)n(/N=C/c2ccc(C(C)C)cc2)c(=O)c1C#N | 1.93
CN(C)S(=O)(=O)Oc1cccc(C(=O)Nc2cccc(Cl)c2)c1 | -15.5
CSc1ncccc1C(=O)OCc1c(F)cccc1Cl | -9.65
Cc1ccc(-c2cc(C(=O)N3CCN(C(=O)c4ccco4)CC3)[nH]n2)cc1C | 5.83
CN(Cc1ccccc1)C(=O)COc1ccccc1Cl | -0.368
O=C(Nc1ccc(S(=O)(=O)Nc2ncccn2)cc1)C1=COCCO1 | -11.7
CCCC(=O)Nc1cccc(NC(=S)NC(=O)C(C)Oc2ccc(Cl)cc2Cl)c1 (stereo not drawn) | -3.45
CCC(=O)NC(=S)Nc1ccc(NC(=O)c2ccc(C)c([N+](=O)[O-])c2)cc1 | 12.8
C/C(=N\NC(N)=O)c1ccccc1Cl | -2.39
Cc1nnc(SCc2ccccn2)n(N)c1=O | 6.25
CCOC(=O)N1CCC(c2[nH][nH]c(=O)c2C)CC1 | 16.2
O=C(CN(C(=O)Cn1nnc(-c2cccs2)n1)c1ccc2c(c1)OCCO2)NCc1ccccc1 | -9.67
C1COCCNCCOCCOCCN1 | -1.7
CCOC(=O)c1nnn(-c2nonc2N)c1CNc1ccccc1 | -16.2
O=C(NCc1ccc2c(c1)OCO2)c1nn(-c2ccccc2)c(=O)c2ccccc12 | -35.1

Compound | hERG current change (%, negative = inhibition) at 10uM [%]
Cn1c(COc2ccc(Cl)cc2)nnc1SCc1ncc(-c2ccccc2)o1 | -48.2
CCOc1ccccc1NC(=O)c1cc(S(=O)(=O)NCc2ccco2)ccc1F | 1.68
Cn1cc(C2CC(c3ccccc3)=NN2C(=O)c2ccccc2)c2ccccc21 (stereo not drawn) | -8.16
CC(=O)Nc1ccc(C(=O)N2CCN(S(=O)(=O)c3ccc4c(c3)OCCCO4)CC2)cc1 | 5.45
CCC(C)(C)NC(=O)c1cc([N+](=O)[O-])ccc1N1CCCCC1 | -36.9
COc1ccc(C2=NN(C(=O)COC(=O)c3ccc(NC(=O)CC#N)cc3)C(c3ccco3)C2)cc1 (stereo not drawn) | 5.24
COc1ccc(C2c3ccc(O)cc3Oc3ncn(CC(C)C)c(=N)c32)cc1 (stereo not drawn) | -69.8
CCC(=O)Nc1cccc(C2=NOC3(C2)C[C@@H](C(N)=O)N(C(=O)C2(C)CC2)C3)c1 (stereo partly drawn) | 7.91
Cc1cc(SCC(=O)N(C)C2CCS(=O)(=O)C2)nc2c(C)cccc12 (stereo not drawn) | 21.2
COc1ccc(CC(=O)NCC(C)(C)N2CCOCC2)cc1 | 23.6
CN(C)C(=O)CCc1nc2sc3c(c2c(=O)[nH]1)CCCC3 | 10.1
Cc1cc(C(=O)Nc2ccc(F)cc2C)cs1 | -15.6
CN(/N=C/c1ccc(O)cc1O)c1nc(-c2ccccc2)cc(-c2ccccc2)n1 | 11
Cc1cc(C)nc(N(C#N)S(=O)(=O)c2ccccc2)n1 | 13.8
COc1cc(C(C)=O)ccc1OCCCOc1cccc2cccnc12 | -0.0533
Cc1ccc(C(=O)c2coc3ccc(O)c(CN(C)C)c23)cc1.Cl | -54.7
Cc1cc(C)n(CC(C)Nc2nc3nonc3nc2N2CCCCC2)n1 (stereo not drawn) | -11.8
CCOc1ccc(NC(=O)C2CCN(S(=O)(=O)c3c(C)noc3C)CC2)cc1 | -3.71
COc1cc(-c2nc(C)c(C(C)=O)n2O)ccc1OCC(=O)Nc1ccc(Cl)cc1 | -5.19
CCCS(=O)(=O)N1CCN=C1SCc1ccc(F)cc1 | 2.23
CN(Cc1cnn(C)c1)C(=O)C1CCC(=O)N(C2CCCCCC2)C1 (stereo not drawn) | 7.67
Cc1nccn1CC(O)COC1CCCCC1 (stereo not drawn) | 13
